Measurements reported in the supplement of paper PMC12217912.
The list shows a part of the results. The full chains were built here from the parent and the listed change. Values near 0.05 are background.

B1: TEV protease; numbered along this chain (parent)
chain: MGESLFKGPRDYNPISSSICHLTNESDGHTTSLYGIGFGPFIITNKHLFRRNNGTLVVQSLHGVFKVKDTTTLQQHLVDGRDMIIIRMPKDFPPFPQKLKFREPQREERICLVTTNFQTKSMSSMVSDTSCTFPSGDGIFWKHWIQTKDGQCGSPLVSTRDGFIVGIHSASNFTNTNNYFTSVPKNFMELLTNQEAQQWVSGWRLNADSVLWGGHKVFMVKPEEPFQPVKEATQL

Variants of: B1
Test: raw area under fraction-flipped curve 0-4 h after induction (AUC4h, not background-subtracted), DNA-recorder readout of cleavage of the substrate (dimensionless); higher = more cleavage of the substrate by the protease variant
Conditions: temperature: 34 °C; time window: 0-4 h after rhamnose induction
Method: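 In vivo DNA recorder in E. coli TOP10(DE3) ΔrhaA at 34 °C. Each TEVp single-site mutant (parent TEVp 0) is paired with a single-site variant of the 7-mer TEVs (canonical ENLYFQ|S). The substrate sits between flexible linkers in a Bxb1-sfGFP-TEVs-SsrA fusion, so cleavage stabilises Bxb1 and speeds flipping of a recombination array, read by NGS. The value is the raw area under the fraction-flipped curve over 0-4 h after rhamnose induction (AUC4h), with ≥20 reads per time point. It is not background-subtracted; inactive controls average about 0.047.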
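Note: Bxb1 expression induced with 0.2% (w/v) L-rhamnose at OD600 near 0.5, cultures sampled hourly, flipped fraction per protease–substrate barcode pair counted by paired-end Illumina sequencing.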

Variant	area with substrate ENLYFAS	area with substrate ENLYFCS	area with substrate ENLYFDS	area with substrate ENLYFES	area with substrate ENLYFFS	area with substrate ENLYFIS	area with substrate ENLYFKS	area with substrate ENLYFLS	area with substrate ENLYFMS	area with substrate ENLYFNS	area with substrate ENLYFPS	area with substrate ENLYFRS	area with substrate ENLYFSS	area with substrate ENLYFTS	area with substrate ENLYFWS	area with substrate ENLYFYS	area with substrate ENLYFVS	area with substrate ENLYFGS	area with substrate ENLYFHS
L73V	0.0605	0.0518	0.0646	0.0674	0.0611	0.0565	0.0382	0.0827	0.0639	0.0672	0.0531	0.0537	0.054	0.0569	0.0353	0.0575	–	–	–
Q74S	0.0571	0.0625	–	–	0.0564	0.039	0.0708	0.0439	0.0742	0.0655	0.0727	–	–	–	–	0.0562	0.0633	–	–
Q75N	0.0592	0.0402	–	0.059	0.0692	0.0496	–	–	0.057	–	0.0514	–	0.0561	–	0.0439	–	–	–	–
H76C	0.0586	0.0797	0.0509	0.0338	0.0602	0.0596	0.0713	0.0612	0.0738	0.0783	0.0602	0.0729	0.0655	0.0596	0.0677	–	0.0619	0.0583	0.0485
L77F	0.0555	0.0426	0.0571	0.058	0.0704	0.0639	0.069	–	0.0522	0.054	0.0596	–	0.0574	0.0565	0.0522	0.044	0.0536	–	0.0852
L77K	0.0555	0.0462	0.0327	–	–	0.0546	0.0557	–	0.051	0.0722	–	–	0.0625	0.0656	0.0242	0.075	0.0356	–	0.0251
G80A	0.0625	–	–	0.0601	0.0431	0.0587	0.076	0.0767	0.0685	0.0608	0.0587	–	–	0.0629	0.0735	0.0571	–	–	–
G80D	0.0511	0.0594	–	0.0844	0.0669	0.0575	0.0627	–	0.0786	0.0674	–	0.0632	–	0.0828	0.0609	–	–	0.0622	–
G80M	0.0813	–	–	0.0634	0.0556	0.0521	–	–	–	–	0.0508	0.0548	0.0585	0.0602	0.0681	0.0568	0.0517	–	0.0627
G80Q	0.0559	0.0489	0.0623	0.056	0.0669	0.0594	0.0621	0.0605	0.0614	0.0771	0.0571	0.0599	0.0631	0.0673	0.0588	–	0.0527	0.0609	0.0613
G80V	0.0574	0.0537	0.049	0.0625	0.0651	0.0514	0.062	–	0.0742	–	0.0551	–	0.0611	0.0486	0.0597	0.0556	0.0396	0.0495	0.0749
G80W	0.0454	0.0659	0.0246	0.0608	0.0668	0.0524	0.0523	–	0.0653	0.0675	0.06	0.059	0.0546	0.0545	0.0699	0.043	0.0486	0.0613	0.0581
R81H	0.061	0.063	0.0966	0.0353	–	0.0594	0.0574	–	0.0629	0.065	0.0688	0.0588	0.0664	0.0612	0.0566	0.0603	0.073	–	0.0422
I85L	0.0503	–	–	–	–	0.0607	0.0522	0.0633	0.0682	0.0737	0.0559	0.0519	–	–	0.0446	0.0858	–	–	0.0682
I86N	0.0342	–	–	–	0.0437	0.0494	–	–	–	0.0495	0.0469	–	–	–	0.0402	–	–	–	–
M88F	0.0563	–	0.0522	–	0.0589	0.059	–	–	0.0589	–	–	0.0608	0.043	0.0471	–	0.0562	–	0.048	0.0506
M88N	0.0231	–	–	0.0589	0.0612	0.053	–	0.0519	–	0.0572	0.0536	0.0219	0.0452	0.0483	0.0435	0.0533	0.0523	0.0393	0.0628
M88P	0.0461	0.0571	–	–	0.0567	0.0449	0.0487	0.0562	0.0632	–	0.0529	0.0596	0.0683	0.0355	–	–	–	–	–
M88R	0.0396	–	0.0466	–	–	0.0413	0.0575	0.0412	0.0479	–	–	–	0.0546	0.0431	–	–	–	–	–
M88V	0.062	0.0434	0.0391	0.0373	–	–	0.0585	–	0.0686	0.0179	0.0473	–	0.0586	0.0536	0.0549	0.0747	0.0528	–	–
F95Y	0.0599	0.041	–	0.0727	0.0566	0.0489	0.0443	–	–	–	0.0515	–	0.0671	0.0535	0.0589	0.0424	–	0.0545	–
P96A	0.0786	0.0538	0.0524	–	0.0691	0.0442	0.0592	–	0.0722	–	0.053	–	0.0465	0.0685	–	–	–	0.0542	–
P96C	0.0637	0.0587	–	0.0841	–	0.059	–	0.0695	0.0669	0.0628	0.0542	–	0.0545	0.0682	0.059	0.0664	–	–	0.0462
P96E	0.092	–	0.0506	0.0645	–	0.0678	–	–	0.0687	–	0.0564	0.0642	0.0285	0.0528	0.0513	0.0557	–	–	–
P96H	0.0573	0.0672	0.0804	0.074	–	0.058	0.0629	–	0.0664	0.0643	0.0543	0.059	–	0.0491	–	0.0562	0.0394	0.0564	0.0678
P96Q	0.0458	–	–	–	–	0.0589	–	–	0.0594	–	0.0665	–	–	–	–	–	0.0498	–	–
P96R	0.0701	–	–	0.0643	–	–	–	0.0653	–	0.069	0.0637	0.049	0.0886	–	0.051	–	–	–	0.0622
P96T	0.0663	–	–	–	–	0.063	–	–	–	–	–	0.0583	–	–	0.0586	0.0631	–	–	–
P96W	0.0597	0.0744	0.0621	0.0689	–	0.0425	0.0533	–	0.0536	0.0514	0.0227	0.0709	0.0562	0.0539	0.0517	–	–	–	0.0507
